For 35 compounds, growth yield results are on record in the supplement of paper PMC8007513.

The assay has as its system Trichoderma virens ATCC 9645. The assay is described as follows: growth yield (OD600) relative to untreated control; higher = less growth inhibition. The following applies: compound concentration: 100 uM. In short, it runs like this: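 For each 96-well plate, 100 μl aliquots were prepared with Trichoderma virens ATCC 9645 spores suspended at 15,000 spores ml^−1 in potato dextrose broth. The spores had been harvested from potato dextrose agar plates after 7 days. Library compounds were present at 100 μM final, some wells also receiving a biocide at 200 ng ml^−1, and plates were grown at 30 °C with OD600 read on a BioTek EL800 at 40 h and 72 h. Reported growth, relative to the control lacking both agents, is the mean of duplicate screens.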

The structures appear in SMILES notation. Structures can show the parent of a compound that is named as a salt. ± gives the standard error. Hit rate of the full screen: of about 1,300 compounds, about 75 (6%) showed an effect of 50% or more. The list shows a part of the results.

In turn, `CC=CC(=O)N(CC)c1ccccc1C` [Crotamiton] returned a growth yield (40 h) of 93.6 ± 5.6% and a growth yield (72 h) of 91.2 ± 3.8%.
`CNCCc1ccccn1` [Betahistine mesylate]: the growth yield reads like this: (40 h) 101 ± 1.4%; (72 h) 103.2 ± 0.84%.
As for `CN1CCN(CC(=O)N2c3ccccc3C(=O)Nc3cccnc32)CC1` [Pirenzepine dihydrochloride], the growth yield was 102 ± 1.6% (40 h) and 103.7 ± 0.73% (72 h).
Regarding `CC(=O)N(CC(O)CO)c1c(I)c(C(=O)NCC(O)CO)c(I)c(C(=O)NCC(O)CO)c1I` (stereo not given) [Iohexol], the growth yield (40 h) worked out at 103 ± 1.3% and the growth yield (72 h) came to 106 ± 1.1%.
As to `CN(CCCCCCCCCCN(C)C(=O)Oc1cccc([N+](C)(C)C)c1)C(=O)Oc1cccc([N+](C)(C)C)c1` [Demecarium bromide], the growth yield (40 h) came to 85.1 ± 2.5% and the growth yield (72 h) was 101 ± 6.6%.
The corresponding values for `COC(=O)Nc1nc2cc(Sc3ccccc3)ccc2[nH]1` [Fenbendazole] are 96.3 ± 3.5% and 98.8 ± 1.3%.
As to `Cn1c(=O)c2c(ncn2CC2OCCO2)n(C)c1=O` [Doxofylline], the growth yield is, setting by setting: (40 h) 97.5 ± 4.1%; (72 h) 95.9 ± 2.9%.
Regarding `CCOc1nc2cccc(C(=O)O)c2n1Cc1ccc(-c2ccccc2-c2nnn[nH]2)cc1` [Candesartan], the growth yield is, setting by setting: (40 h) 103 ± 6.3%; (72 h) 107 ± 7.1%.
With `C[C@@](Cc1ccc(O)c(O)c1)(NN)C(=O)O` [Carbidopa], the growth yield by setting is: (40 h) 97.4 ± 4.3%; (72 h) 99.2 ± 2.1%.
The corresponding values for `Nc1ncnc2c1ncn2[C@@H]1O[C@H](CO)[C@@H](O)[C@@H]1O` [Vidarabine] are 104 ± 3.2% and 100 ± 1.7%.
In the same order, the values of `CC(=O)OC[C@H]1O[C@@H]([S-])[C@H](OC(C)=O)[C@@H](OC(C)=O)[C@@H]1OC(C)=O.CCP(CC)CC.[Au+]` [Auranofin] are 25.6 ± 2.1% and 33 ± 2%.
For the compound `CCCCc1oc2ccc(NS(C)(=O)=O)cc2c1C(=O)c1ccc(OCCCN(CCCC)CCCC)cc1` [Dronedarone hydrochloride], the growth yield is, setting by setting: (40 h) 6.19 ± 1.8%; (72 h) 1.99 ± 0.52%.
Consider `CCC1(c2ccccc2)C(=O)NCNC1=O` [Primidone], for which the growth yield runs as follows: (40 h) 98.8 ± 3.8%; (72 h) 98.1 ± 1.4%.
Regarding `CN(C)CCC(c1ccc(Br)cc1)c1ccccn1` (stereo not given) [Brompheniramine maleate], the growth yield runs as follows: (40 h) 98.5 ± 5.1%; (72 h) 101 ± 5.2%.
In the case of `O=C1CC[C@@H](C(=O)N2CSC[C@H]2C(=O)O)N1` [Pidotimod], the growth yield is, setting by setting: (40 h) 96.42 ± 0.16%; (72 h) 97.12 ± 0.21%.
The corresponding values for `Oc1c(Cl)cc(Cl)c2cccnc12` [Chloroxine] are 1.27 ± 0.32% and 1.36 ± 0.32%.
Regarding `c1ccc(-c2ccc(C(c3ccccc3)n3ccnc3)cc2)cc1` (stereo not given) [Bifonazole], the growth yield stood at 2.86 ± 1.9% (40 h) and 1.99 ± 0.94% (72 h).
As for `C[C@]12CC[C@@H]3c4ccc(O)cc4C[C@@H](CCCCCCCCC[S+]([O-])CCCC(F)(F)C(F)(F)F)[C@H]3[C@@H]1CC[C@@H]2O` (stereo not given in full) [Fulvestrant], the growth yield stood at 104 ± 4% (40 h) and 106 ± 5% (72 h).
For `CO/N=C(\C(=O)N[C@@H]1C(=O)N2C(C(=O)O)=C(COC(C)=O)CS[C@H]12)c1csc(N)n1` [Cefotaxime sodium salt], the growth yield runs as follows: (40 h) 99.6 ± 3.6%; (72 h) 101 ± 2.5%.
In the same order, the values of `CCCCOc1cc(C(=O)OCCN(CC)CC)ccc1N` [Benoxinate hydrochloride] are 103 ± 3% and 103 ± 1.1%.
`Clc1ccc2nsnc2c1NC1=NCCN1` [Tizanidine hydrochloride]: the growth yield (40 h) was 99.91 ± 0.48% and the growth yield (72 h) worked out at 99.3 ± 2%.
In the same order, the values of `Cc1cc2cc3c(C)cc(=O)oc3c(C)c2o1` [Trioxsalen] are 42.1 ± 0.48% and 73.7 ± 4.5%.
The compound `CC(=O)Nc1nnc(S(N)(=O)=O)s1` [Acetazolamide] came in with a growth yield (40 h) of 108 ± 6.3% and a growth yield (72 h) of 104 ± 5.3%.
Take `CC(C)Oc1ccc2c(=O)c(-c3ccccc3)coc2c1` [Ipriflavone]: the growth yield is, setting by setting: (40 h) 87 ± 3.2%; (72 h) 89.5 ± 1.8%.
As to `CNCC(O)c1ccc(O)c(O)c1` (stereo not given) [Racepinephrine hydrochloride], the growth yield turned out to be 95.6 ± 3.8% (40 h) and 89.1 ± 5% (72 h).
In turn, `CCOC1O[C@H]([C@@H](COCc2ccccc2)OCc2ccccc2)[C@H](OCc2ccccc2)[C@H]1O` (stereo not given in full) [Tribenoside] came in with a growth yield (40 h) of 90.2 ± 6% and a growth yield (72 h) of 87.2 ± 6.2%.
In the same order, the values of `CC(=O)Nc1c(I)c(C(=O)N[C@H]2C(O)O[C@H](CO)[C@@H](O)[C@@H]2O)c(I)c(N(C)C(C)=O)c1I` (stereo not given in full) [Metrizamide] are 102 ± 13% and 105 ± 12%.
The corresponding values for `CCN(CC)CCNC(=O)c1ccc(N)cc1` [Procainamide hydrochloride] are 102.5 ± 0.48% and 105 ± 1.8%.
Compound `CC[C@H]1OC(=O)[C@H](C)[C@@H](O[C@H]2C[C@@](C)(OC)[C@@H](O)[C@H](C)O2)[C@H](C)[C@@H](O[C@@H]2O[C@H](C)C[C@H](N(C)C)[C@H]2O)[C@](C)(O)C[C@@H](C)CN(C)[C@H](C)[C@@H](O)[C@]1(C)O` [Azithromycin] had a growth yield (40 h) of 99.43 ± 0.32% and a growth yield (72 h) of 96.2 ± 1.1%.
The corresponding values for `C[C@@H]1CCC[C@H](C)N1NC(=O)c1ccc(Cl)c(S(N)(=O)=O)c1` [Clopamide] are 99.6 ± 1.8% and 103 ± 3%.
In the case of `CN[C@H]1CC[C@@H](c2ccc(Cl)c(Cl)c2)c2ccccc21` [Sertraline], the growth yield reads like this: (40 h) 101 ± 1.9%; (72 h) 117 ± 2.4%.
`CC(CNC1CCCCC1)OC(=O)c1ccccc1` (stereo not given) [Hexylcaine hydrochloride] gave a growth yield (40 h) of 107 ± 5.2% and a growth yield (72 h) of 101 ± 4%.
As for `Nc1ccc(S(=O)(=O)Nc2nccs2)cc1` [Sulfathiazole], the growth yield amounted to 104 ± 3.8% (40 h) and 102 ± 4.5% (72 h).
Regarding `Cc1ccc(-c2cc(C(F)(F)F)nn2-c2ccc(S(N)(=O)=O)cc2)cc1` [Celecoxib], the growth yield was 89 ± 1.9% (40 h) and 90.5 ± 2.2% (72 h).
On to `CCOC(=O)/C=C(C)/C=C/C=C(C)/C=C/c1c(C)cc(OC)c(C)c1C` [Etretinate], for which the growth yield came out at 110 ± 6.3% (40 h) and 107 ± 5.5% (72 h).
